# Measured values taken from PubChem BioAssay AID1508642 (National Center for Advancing Translational Sciences (NCATS), 2021).
# Among all 43,000 compounds or so, about 200 (0.47%) were called active. Another 12% or so got no clear call; they are omitted. Calls come from the whole dose curve; as a rule, active = well fitted cell-killing curve with a large enough effect; inconclusive = small, poorly fitted or top-dose-only effect, or effect the other way; inactive = flat fitted curve, though single readings scatter. The list shows a part of the results.
# Test: Cell viability qHTS assay in S16 Pmp22-F2sN cells; note: nearly all actives have a fitted effect of over 65% in size
# Conditions: S16 Pmp22-F2sN Schwann cells viability, CellTiter-Glo, 24 h; series mostly up to 57.5 µM; activity change, negative = cytotoxicity: at the top concentration
# Procedure, shortened: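 S16 Pmp22-F2sN Schwann cells (500-1,000/well) in phenol-red-free DMEM with 10% FBS received 23 nL compound by pin tool for 24 h at 37 °C. Viability was then read as CellTiter-Glo luminescence after 15 min at room temperature.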
# % is set by controls: 0 for no effect and ±100 for the full control effect.
row,SMILES,"activity change, negative = cytotoxicity"
1,Cc1ccc(NC(=O)Cn2c(=O)n(CCCCCC(=O)NCc3ccc(F)cc3)c(=O)c3sccc32)c(C)c1,inactive: -18.2%
2,Cc1c(Cl)cccc1NC(=O)c1cnc2sc(N3CCCC3)nn2c1=O,inactive: 4.59%
3,COCCN1Cc2cccc(C(=O)Nc3ccc(C)cc3C)c2C1=O,inactive: -0.41%
4,O=S(=O)(c1ccc2ccccc2c1)n1nc(-c2ccco2)nc1NCc1cccc(Cl)c1,inactive: -2.4%
5,Cc1ccc(CNC(=O)c2ccc3c(c2)N(Cc2ccccc2F)C(=O)c2ccccc2S3(=O)=O)cc1,inactive: 17.4%
6,COc1ccc(S(=O)(=O)c2cn(C)c3cc(N4CCCC4)c(F)cc3c2=O)cc1,inactive: -11.6%
7,COc1cccc(CNC(=O)c2cnc(N3CCCC3)nc2C)c1,inactive: 5.16%
8,Cc1ccc(-c2nnc(SCC(=O)N3CCc4ccccc43)o2)cc1,inactive: 6.88%
9,CCCC12CN3CC(CCC)(CN(C1)C3c1c[nH]c3ccccc13)C2=O (stereo not given),inactive: -1.06%
10,COc1ccc(-c2nc(-c3ccccc3)c(-c3ccccc3)[nH]2)cc1Br,inactive: 3.87%
11,CCn1cc(C(=O)OCC(=O)Nc2cc(C)cc(C)c2)c(=O)c2ccc(C)nc21,inactive: -0.946%
12,COC(=O)c1scc(-c2ccc(C)cc2)c1S(=O)(=O)Nc1cccc(C(F)(F)F)c1,inactive: -17.4%
13,COc1ccc(CCNC(=O)c2cc(-c3ccccc3)nc3ccccc23)cc1OC,inactive: 3.56%
14,CCC(=O)N1CCc2cc(S(=O)(=O)NCCC(=O)Nc3ccc(OC)c(Cl)c3)ccc21,inactive: -10.1%
15,CCc1nnc2c(NCc3ccccc3OC)nc3ccccc3n12,inactive: 6.68%
16,CC(C)c1nnc(N2C(=O)c3oc4ccccc4c(=O)c3C2c2cccc(O)c2)s1 (stereo not given),inactive: 2.85%
17,CCOc1ccc(CC(=O)Nc2nnc3n2CCS3)cc1,inactive: -2.11%
18,COC(=O)c1sc2cccc(F)c2c1S(=O)(=O)Nc1cc(OC)cc(OC)c1,inactive: -10.1%
19,O=C(CSc1nc2ccccc2c(=O)n1CCC(=O)NC1CCCCC1)Nc1ccccc1Cl,inactive: 2.93%
20,Cc1nn(CCCC(=O)NCc2ccccc2)c(=O)c2nn(-c3ccccc3)c(C)c12,inactive: -0.748%
21,Cn1c(=O)[nH]c(=O)c2c1nc1n(CCO)c(-c3ccccc3)cn21,inactive: 1.54%
22,O=C(CSc1nc2c(cnn2-c2ccc(F)cc2)c(=O)[nH]1)Nc1ccc(Br)cc1,inactive: -4.22%
23,CCCCOc1ccc(-c2cc3c(=O)n(CC(=O)Nc4ccc(Cl)cc4Cl)ccn3n2)cc1,inactive: 0.663%
24,Cc1ccc(-c2nn(CC(=O)NC3CCCCC3)c3c2cnc2ccc(F)cc23)cc1C,inactive: -4.03%

row,SMILES,"activity change, negative = cytotoxicity"
1,CCOc1cccc2cc(-c3nnc(Nc4ccc(F)c(Cl)c4)s3)c(=O)oc12,inactive: 6.18%
2,COc1ccc(C2C(C(N)=O)=C(C)Nc3nc(-c4ccccc4Cl)nn32)cc1 (stereo not given),inactive: -16.7%
3,Cc1[nH]c2ccccc2c1C(=O)C(=O)NC1CC(=O)N(c2cccc(F)c2)C1 (stereo not given),inactive: 21.4%
4,Cc1ccc2oc(C(=O)N(Cc3ccccc3F)C3CCS(=O)(=O)C3)c(C)c2c1 (stereo not given),inactive: -2.79%
5,COc1cccc(NC(=O)CC2C(=O)OCCN2Cc2ccccc2)c1 (stereo not given),inactive: -19.8%
6,Cc1cccc(C)c1Nc1c(-c2ccc(Cl)s2)nc2ncccn12,inactive: -12.5%
7,COc1cccc(CNC(=O)c2cc(=O)[nH]c3ccc(S(=O)(=O)N4CCCCC4)cc23)c1,inactive: -0.592%
8,CC(C)C(=O)OC1=CN(Cc2ccccc2)S(=O)(=O)c2ccccc21,inactive: -2.91%
9,COc1ccccc1CNC(=O)c1ccc2c(c1)sc1nc(-c3ccc(F)cc3)cn12,inactive: -2.01%
10,CCOc1ccc(CNC(=O)c2c(C)nn(-c3ccc(F)cc3)c2-n2cccc2)cc1,inactive: 0.0231%
11,CC(=O)Nc1nonc1-c1nnc(SCC(=O)Nc2ccc(C)cc2C)n1C,inactive: 1.21%
12,COc1ccc(NC(=O)[C@@H](c2ccccc2)N2Cc3ccccc3C2=O)cc1OC,inactive: -8.1%
13,O=C(Nc1ccc(SC(F)F)cc1)c1cc(-c2ccc3c(c2)OCCO3)on1,inactive: -9.71%
14,Cc1noc(Cn2c(=O)c3cc4c(cc3n(CC(=O)Nc3cccc(Cl)c3)c2=O)OCO4)n1,inactive: -17.7%
15,Cc1ccc(CSCC(=O)N2CCN(c3cc(Cl)ccc3C)CC2)cc1,inactive: -1.11%
16,Cc1ccc(-n2nc(C(=O)NCCN(C)C)c(=O)n(C)c2=O)cc1,inactive: 11%
17,CC1CCc2c(sc(NC(=O)COc3ccccc3)c2C(=O)Nc2ccccc2Cl)C1 (stereo not given),inactive: -1.77%
18,COc1ccc(-c2noc(-c3ccc(NC4CCCC4)c([N+](=O)[O-])c3)n2)cc1,inactive: 8.32%
19,CCCN(CCC)C(=O)C1CCCN(S(=O)(=O)c2ccc3c(c2)oc(=O)n3C)C1 (stereo not given),inactive: 5.88%
20,O=C(c1ccccc1)c1ccccc1NC(=O)c1ccccc1C(=O)O,inactive: -0.85%
21,Cc1ccc(-c2nc(CS(=O)CC(=O)N3CCN(c4ccccc4)CC3)c(C)o2)cc1 (stereo not given),inactive: -0.38%
22,Cc1ccc(C(=O)c2oc3ccccc3c2NC(=O)c2cc(-c3ccccc3)on2)cc1F,inactive: 11%
23,CCN(CC)c1cc(C)c2cc(NC(=O)/C=C/c3ccc(C)cc3)ccc2n1,inactive: 21.8%
24,CC(=O)c1ccc(N2CCN(C(=O)c3cc4cc5cc(C)ccc5nc4s3)CC2)cc1,inactive: 8.81%

row,SMILES,"activity change, negative = cytotoxicity"
1,COc1ccc(Cl)cc1NC(=O)c1cc2c(s1)-c1ccccc1OC2,inactive: -9.96%
2,COCCNC(=O)CCc1nc2cccnc2n1Cc1ccc(OC)cc1,inactive: -0.822%
3,COc1ccc(OC)c(NC(=O)CSc2cn(CC(=O)N3CCOCC3)c3ccccc23)c1,inactive: 23.1%
4,COc1cccc(C2C(C(=O)Nc3ccccc3)=C(C)Nc3nc(-c4ccccc4)nn32)c1 (stereo not given),inactive: 7.01%
5,Oc1c(Br)cc(Br)cc1-c1nc2ccccc2s1,inactive: -2.84%
6,CS(=O)(=O)N(CC(=O)NCCSc1ccccc1)c1cc(C(F)(F)F)ccc1Cl,inactive: 10.3%
7,COc1ccc(C2C=C(c3ccccc3)Nc3nc(NS(=O)(=O)c4ccc(Cl)cc4)nn32)cc1 (stereo not given),inactive: 5.06%
8,O=C(Cn1c(=O)n(CC2CCC(C(=O)NCCc3ccccc3)CC2)c(=O)c2ccccc21)Nc1cccc(F)c1 (stereo not given),inactive: 9.05%
9,CC(=O)c1cc2c(cc1N/C(=N/S(=O)(=O)c1ccc(Br)cc1)c1ccccc1)OCO2,inactive: -17.9%
10,COc1ccc(C(=O)Cn2c(=O)c(-c3cc(C)ccc3NC(C)=O)nc3ccccc32)cc1,inactive: 7.29%
11,O=C(COc1ccccc1)NC1CC(=O)N(c2ccc3c(c2)OCCO3)C1 (stereo not given),inactive: 2.69%
12,COC(=O)c1ccccc1NC(=O)N1CCc2c(sc3c2CCCC3)C1c1ccc(F)cc1 (stereo not given),inactive: 23%
13,CCOc1ccccc1NC(=O)Cn1c(=O)n(-c2cccc(C)c2)c(=O)c2c1c1cc(OC)ccc1n2C,inactive: 0.853%
14,CCOc1ccc(C(=O)c2cn(CC(=O)Nc3ccc(Cl)cc3)c3cc4c(cc3c2=O)OCCO4)cc1,inactive: -6.17%
15,Cc1ccc(C)c(N2CCN(C(=O)c3noc4c3CCCCC4)CC2)c1,inactive: -7.54%
16,Cc1ccccc1Cn1c(CN2CCCC(C)C2)nc2c1c(=O)n(C)c(=O)n2C (stereo not given),inactive: 2.88%
17,COc1ccc(OC)c(NC(=O)c2cnn(-c3ccc(C)cc3)c2C2CCNCC2)c1,inactive: -11%
18,CCc1ccccc1N(C)C(=O)c1cc2c(=O)oc3ccccc3c2s1,inactive: -0.913%
19,CC(C)n1c(=N)c(C(=O)NCc2ccccc2)cc2c(=O)n3ccccc3nc21,inactive: 1.97%
20,COc1cc(NC(=O)c2cc(S(=O)(=O)N3CCc4ccccc43)cn2C)cc(OC)c1OC,inactive: -2.52%
21,Cc1ccc(C)c(CN2C(=O)c3ccccc3S(=O)(=O)c3ccc(C(=O)N4CCCCC4)cc32)c1,inactive: -1.43%
22,COc1cc2c(=O)n(CCc3ccccc3)c(=O)n(CC(=O)Nc3ccccc3)c2cc1OC,inactive: 1.46%
23,O=C(COc1ccccc1[N+](=O)[O-])N(Cc1ccco1)c1ccccn1,inactive: -5.02%
24,O=C(C1CCC1)N1CCc2cc(S(=O)(=O)NCc3ccc(F)cc3)ccc21,inactive: -14.8%

row,SMILES,"activity change, negative = cytotoxicity"
1,COc1ccc(C)cc1NC(=O)N1CCCn2nc(C)cc21,inactive: -1.63%
2,CC(C)CC(=O)Nc1c(C(=O)N2CCN(c3ccccc3)CC2)oc2ccccc12,inactive: -0.599%
3,CCCN(C(=O)c1coc(=O)c2ccccc12)c1ccccc1C,inactive: 0.428%
4,CCc1ccc(OCC2c3cc(OC)c(OC)cc3CCN2C(=O)COc2ccccc2)cc1 (stereo not given),inactive: -1.07%
5,CCCN(CCC)C(=O)c1c2c(nc3ccccc13)C(=O)N(C1CCCCC1)C2,inactive: 6.36%
6,COc1ccc(-n2nc(C(=O)Nc3cccc(C)n3)c3c4ccccc4n(C)c3c2=O)cc1Cl,inactive: 1.61%
7,CCOc1ccc(CCNC(=O)CCc2cn(Cc3ccc(F)cc3)c3ccccc23)cc1,inactive: 8.87%
8,COc1cccc(NC(=O)C(Cc2ccccc2)NS(=O)(=O)c2ccc3c(c2)oc(=O)n3C)c1 (stereo not given),inactive: -23.1%
9,Cc1coc2cc3oc(=O)c(CC(=O)NCCc4ccccc4)c(C)c3cc12,inactive: 16.7%
10,CCOc1ccc(NC(=O)Cn2cc(C(=O)c3ccco3)c3ccccc32)cc1,inactive: 8.14%
11,CCOc1ccc(CCNC(=O)c2cc3c(-c4ccc(OC)c(OC)c4)nn(C)c3s2)cc1OCC,inactive: -21.6%
12,CCn1c(=O)cc(OCC(=O)Nc2cc(Cl)c(OC)cc2OC)c2ccccc21,inactive: -4.44%
13,Cc1ccc(N2C(=O)CSC23C(=O)N(CC(=O)Nc2ccc(C(C)C)cc2)c2ccccc23)cc1C (stereo not given),inactive: -27.3%
14,Cc1cccc(N2CCN(S(=O)(=O)c3cc(C(=O)Nc4ccccc4Cl)ccc3F)CC2)c1C,inactive: -28.4%
15,CCc1ccccc1NC(=O)CSc1nnc2ccc3ccccc3n12,inactive: -9.37%
16,COC(=O)c1cc2oc3ccccc3c2n1Cc1nc(-c2ccccc2C)oc1C,inactive: -1.9%
17,CCC(C)NC(=O)CCc1c(C)nc2nc(-c3cc(OC)cc(OC)c3)nn2c1C (stereo not given),inactive: 3.6%
18,Cc1ccc(NC(=O)[C@@H](c2ccccc2)N2Cc3ccccc3C2=O)cc1,inactive: -2.21%
19,Cc1ccc2[nH]c(CSc3nnc(NC(=O)c4ccc(Cl)cc4)s3)cc(=O)c2c1,inactive: 13.7%
20,COc1ccc(OC)c(CCNc2nc3ccccc3c3nc(-c4cccnc4)nn23)c1,inactive: 2.25%
21,Brc1ccc(-n2nc(-c3ccccc3)c3cnc4cc5c(cc4c32)OCO5)cc1,inactive: 0.911%
22,Cc1c(C(=O)Nc2cccc(Cl)c2)oc2ccc(S(=O)(=O)N(C)C3CCCCC3)cc12,inactive: 1.07%
23,COc1cccc(NC(=O)Cn2c(=O)n(-c3ccc(C)cc3)c(=O)c3ccc(C(=O)NCc4ccco4)cc32)c1,inactive: -11.4%
